Data taken from publication PMC8280134.

Target: HuNoV GII.4 Sydney 2012 virus-like particle (human norovirus GII.4 (Sydney 2012))

B1: NORO-320 recombinant Fab (Fab, V domains shown)
VH: QVQLVQSGPEVKKPGSSVKVSCKASGGTVSSYAISWVRQAPGQGLEWMGGIIPIFDTTNYAQKFQGRVTITADESTGTSDMELSSLRSEDTAVYYCARDRVPSYSPSRRFSTKGAMWGKYGMDVWGQGTLVTVSS
VL: [skipping about 120 residues]
**Q.** For B1, which blocking of GII.4 Sydney 2012 VLP binding to porcine gastric mucin (PGM) glycans: not blocked is on record?
**A.** The blocking of GII.4 Sydney 2012 VLP binding to porcine gastric mucin (PGM) glycans: not blocked was greater than 1000 nM.
